Assay results: the supplement of paper PMC4604168 (melanoma cell lines)
This is one part of the list. Repeats are few or missing, and single values can be far off.

These compounds were tested on A375 (assay: cell count relative to DMSO control; melanoma cells; higher = more viable cells). Conditions: library dose: low library concentration; 72 h.
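Further: cell number obtained by counting DAPI-stained nuclei in high-throughput microscope images with image analysis software, screen run in 1,536-well plates.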

SMILES	cell count [%]
Cc1cc(Nc2cc(N3CCN(C)CC3)nc(/C=C/c3ccccc3)n2)n[nH]1 + COc1ccc(Cl)c(Nc2nc3ccccc3nc2NS(=O)(=O)c2cccc(NC(=O)C(C)(C)N)c2)c1 [XL147] (first compound 0.04 µM, partner dose 0.8 µM)	86.4
COc1ccc(C2=N[C@@H](c3ccc(Cl)cc3)[C@@H](c3ccc(Cl)cc3)N2C(=O)N2CCNC(=O)C2)c(OC(C)C)c1 [Nutlin-3] + NC1(c2ccc(-c3nc4ccn5c(=O)[nH]nc5c4cc3-c3ccccc3)cc2)CCC1 [MK2206] (first compound 0.1 µM, partner dose 0.4 µM)	104
CC(C)C[C@H](NC(=O)[C@H](Cc1ccccc1)NC(=O)c1cnccn1)B(O)O [Bortezomib] + CS(=O)(=O)CCNCc1ccc(-c2ccc3ncnc(Nc4ccc(OCc5cccc(F)c5)c(Cl)c4)c3c2)o1 [lapatinib] (first compound 0.001 µM, partner dose 0.8 µM)	82.6
CC(C)C[C@H](NC(=O)[C@H](Cc1ccccc1)NC(=O)c1cnccn1)B(O)O [Bortezomib] + C[C@]1(c2nc3c(C(N)=O)cccc3[nH]2)CCCN1 [Veliparib] (first compound 0.001 µM, partner dose 1.4 µM)	74.5
Cc1cc(Nc2cc(N3CCN(C)CC3)nc(/C=C/c3ccccc3)n2)n[nH]1 + COCC[n+]1c2c(n(Cc3cnccn3)c1C)C(=O)c1ccccc1C2=O [YM155] (first compound 0.04 µM, partner dose 0.0004 µM)	89.8
Cc1cn(-c2cc(NC(=O)c3ccc(C)c(Nc4nccc(-c5cccnc5)n4)c3)cc(C(F)(F)F)c2)cn1 [nilotinib] + CC(C)C[C@H](NC(=O)[C@H](Cc1ccccc1)NC(=O)c1cnccn1)B(O)O [Bortezomib] (first compound 0.2 µM, partner dose 0.001 µM)	94.9
Cn1c(=O)n(-c2ccc(C(C)(C)C#N)cc2)c2c3cc(-c4cnc5ccccc5c4)ccc3ncc21 + CN1CCN(c2ccc3nc(-c4c(N)c5c(F)cccc5[nH]c4=O)[nH]c3c2)CC1 [Dovitinib] (first compound 0.004 µM, partner dose 0.1 µM)	110
CC(C)C[C@H](NC(=O)[C@H](Cc1ccccc1)NC(=O)c1cnccn1)B(O)O [Bortezomib] + CCCS(=O)(=O)Nc1ccc(F)c(C(=O)c2c[nH]c3ncc(Cl)cc23)c1F [PLX4720] (first compound 0.001 µM, partner dose 0.08 µM)	83.1
Cc1cn(-c2cc(NC(=O)c3ccc(C)c(Nc4nccc(-c5cccnc5)n4)c3)cc(C(F)(F)F)c2)cn1 [nilotinib] + OCc1c[nH]c2ccccc12 [Indole-3-carbinol] (first compound 0.2 µM, partner dose 0.8 µM)	106
CC(C)C[C@H](NC(=O)[C@H](Cc1ccccc1)NC(=O)c1cnccn1)B(O)O [Bortezomib] + Cn1c(Nc2ccc(C(F)(F)F)cc2)nc2cc(Oc3ccnc(-c4ncc(C(F)(F)F)[nH]4)c3)ccc21 [CHIR265] (first compound 0.001 µM, partner dose 0.08 µM)	61.5
Cc1cc(Nc2cc(N3CCN(C)CC3)nc(/C=C/c3ccccc3)n2)n[nH]1 + Cn1nnc2c(C(N)=O)ncn2c1=O [temozolomide] (first compound 0.04 µM, partner dose 2 µM)	86.3
Cc1cn(-c2cc(NC(=O)c3ccc(C)c(Nc4nccc(-c5cccnc5)n4)c3)cc(C(F)(F)F)c2)cn1 [nilotinib] + Cn1nnc2c(C(N)=O)ncn2c1=O [temozolomide] (first compound 0.2 µM, partner dose 2 µM)	85.6
